In all, about 350,000 compounds went through this assay and about 9,900 (2.8%) were called active. Inconclusive means that the source gave no clear call. Such entries were picked first, then a sample of the others. Calls follow the shape of the dose curve; as a rule, active = well fitted activation curve with a large enough effect; inconclusive = small, poorly fitted or top-dose-only effect; inactive = no such curve, though single readings can be large or run the other way. Potencies of inconclusive entries are left out as doubtful fits.
Experiment: A quantitative high throughput screen for small molecules that induce DNA re-replication in MCF 10a normal breast cells. Also: nearly all actives have a fitted effect of over 50% in size.
Conditions: MCF 10A DNA re-replication, Hoechst nuclear intensity, 48 h; series mostly up to 46.1 µM
Potency is read from the fitted curve at half-maximal effect; tags tell the direction and shape of the fitted curve.

| SMILES | Potency |
| --- | --- |
| CCOC(=O)NNC(=O)CCn1c2c(c3ccccc31)CCCC2 | inactive |
| COC(=O)c1ccc2c(c1)C(C)(C)C(/C=C/c1ccccc1O)=[N+]2C | active: 7.08 µM |
| CC(C)S(=O)(=O)c1csc(NC(=O)Nc2cc(Cl)ccc2Cl)c1Cl | inconclusive [activator, single point] |
| Cc1ccc(S(=O)(=O)N2CCN(C(=O)CCN3C(=O)c4ccccc4C3=O)CC2)cc1C | inconclusive [activator, partial curve, poor fit] |
| Nc1ccc(N=Nc2ccccc2O)c(N)c1 | inactive |
| CCC(=O)c1ccc(OCC(O)CNC2CCCC2)cc1 (stereo unspecified) | inconclusive [activator, partial curve, poor fit] |
| COc1cccc(CNc2ccc(S(N)(=O)=O)cc2)c1OC | inactive |
| CN(C)CCCOc1ccc(C(C)(C)c2ccccc2)cc1 | inconclusive [activator, partial curve, poor fit] |
| COc1ccc(CNc2nc3ccc(C)cc3s2)c(OC)c1OC | inactive |
| CCOc1ccc(C(=O)Nc2nnn(CC)n2)cc1 | inactive |
| O=C(/C=C/c1ccc2c(c1)OCO2)c1ccco1 | inconclusive [activator, single point] |
| O=C(CSc1ccc(-c2nc3ccccc3[nH]2)cn1)Nc1ccc2c(c1)OCCO2 | inconclusive [activator, single point] |
| CCOC(=O)C1(Cc2ccccc2C(F)(F)F)CCN(CC2CC2)CC1 | inactive |
| Cc1ccc(C(=O)NC(C(=O)Nc2cccc(S(N)(=O)=O)c2)C(C)C)cc1 (stereo unspecified) | inactive |
| Cc1ccc(C)c(N2CCN(C(=O)c3ccc4c(=O)n5c(nc4c3)CCCCC5)CC2)c1 | inconclusive [activator, partial curve, poor fit] |
| Cc1cc(/C=C2/NC(=O)N(c3ccccc3)C2=O)c(C)n1C(C)C | inconclusive [activator, single point] |
| C=CCNc1oc(-c2cccc3ccccc23)nc1C#N | inconclusive [activator, full curve, poor fit] |
| O=C(N/N=C/c1ccc(N2CCOCC2)o1)c1cccc(F)c1 | inconclusive [activator, single point] |
| CC(=O)OC1COC(n2c(O)c(N=NC(N)=S)c3ccccc32)C(OC(C)=O)C1OC(C)=O (stereo unspecified) | active: 0.651 µM |
| COCCCNC(=S)N/N=C/c1ccc2ccccc2c1 | inactive |
| CCOC(=O)c1sc2nc3c(cc2c1N)COC(C)(C)C3 | inconclusive [activator, single point] |

Reference: PubChem BioAssay AID624296 (National Center for Advancing Translational Sciences (NCATS), 2012)
